According to a collection of fitness landscapes (doi:10.1016/j.celrep.2020.107928):
In all, about 81,000 sequences were measured (“one-hybrid fitness for binding parS DNA”: median about -0.17, highest 2% from about 0.51 on). The list shows a part of the results.

B1: Caulobacter ParB omega fusion; a variant is named by its letters at X, in order, B8GW30 (parent)
chain: MESVVVGEPGMSEGRRGLGRGLSALLGEVDAAPAQAPGEQLGGSREAPIEILQRNPDQPRRTFREEDLEDLSNSIREKGVLQPILVRPSPDTAGEYQIVAGERAWRAAQRAGLKTVPIMVRELDDLAVLEIGIIENVQRADLNVLEEALSYKVLMEKFERTQENIAQTIGKSXSHVANXMRLLXLPDEVQSYLVSGELTAXHARAIAAAADPVALAKQIIEGGLSVRETEALARKAPNLSAGKSKGGRPPRVKDTDTQALESDLSSVLGLDVSIDHRGSTGTLTITYATLEQLDDLCNRLTRGI

Variants of: B1
Assay: one-hybrid fitness for binding parS DNA (scaled: cognate 1, non-cognate 0); higher = stronger binding
Conditions: with parS DNA site
Procedure, shortened: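 Fitness is the rescaled log change in variant-to-wild-type read ratio, measured by Illumina sequencing of plasmids before and after bacterial one-hybrid selection. The scale puts cognate at 1 and non-cognate at 0. Selection of Caulobacter ParB libraries, four specificity codons randomised, took place in E. coli USO with a HIS3 reporter, site 19 bp from the promoter, over 48 hours at 37°C on M9-minus-histidine with 0.1 mM IPTG and 5 mM 3-AT.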

one-hybrid fitness for binding parS DNA, 0.956:
RLTT

one-hybrid fitness for binding parS DNA, 0.613:
RLMA

one-hybrid fitness for binding parS DNA, 0.207:
RSLH

one-hybrid fitness for binding parS DNA, 0.976:
RHYS

one-hybrid fitness for binding parS DNA, 0.913:
RSRS

one-hybrid fitness for binding parS DNA, 0.451:
RKIA

one-hybrid fitness for binding parS DNA, 0.263:
LTCP

one-hybrid fitness for binding parS DNA, 0.26:
RWAN

one-hybrid fitness for binding parS DNA, 0.545:
RVMA

one-hybrid fitness for binding parS DNA, 0.617:
RNDC

one-hybrid fitness for binding parS DNA, 0.931:
RITT

one-hybrid fitness for binding parS DNA, ≤ 0.2:
KVKC
QCFD
EMPG
SNIN
NFYF
HSTI
RGPW
HTRI
YYCS
MRFC
PDWE
SPQS
IDTC
VNTH
ANCC
LWQE
RFER
VPTR
PWVT
QCEW
WPSF
AVLW
GKQV
QNLQ
TSMA
CSMC
CSGC
RQWF
KFQV
HPAL
ELGR
SFLR
QQLD
FFDS
TQNG
PRPF
LSTT
TVNW
WNRG
TGAM
CLFV
IVCG
REYR
LRSQ
DHTI
YELG
GMKT
NPPH
LIPA
CLWG
RMAR
APTK
GLNK
HQRS
HAVT
RPRV
DKNR
IRVE
PMPL
WADF
CGTG
CPNT
HGCK
KRLQ
TQGG
IMNT
PSHC
HWVP
YKRG
LSHQ
GRFP
RIVL
WALG
TVQM
RPEV
SNHL
WNGF
QPCT
GPPF
TSQC
PMTY
VKSA
YNDR
IFHG
TAGQ
RPWR
WATS
ACTC
TLFC
EELK
CSPN
WAVM
EWRC
SDTL
CVQR
IFYT
WTTQ
FPRF
MSIF
WKNN
RDRP
IMSR
EDYP
ACLF
HLRR
ISIF
LILE
DVTW
VGES
RWCR
NIMD
ASLS
IAHC
AMKC
DPLN
ITWR
MTNP
SAHI
SFPY
ATLY
QTRV
RMPK
IMSF
WFNR
VICL
FKQG
LYKM
MSCN
TVAW
AKNF
PNQN
PKER
RCNK
AACA
LCCC
GSFG
SPSM
KTLS
DRYY
NEVN
DPHT
QLIT
LVFG
VTLT
SYKP
LNKA
MDLY
WNTR
WHLL
WTTK
TYVS
SAEV
HSMG
QCKG
NYSR
AGLV
QAYI
NGHL
TAIN
LPAY
QINM
RLPQ
YVDY
MCKT
EVMT
VCQM
SKGT
PTLP
NYYL
ACPS
FNPD
QHQK
AMRS
WEWS
CMQI
MAGS
NSAT
GASW
DAAT
VKNL
CSPL
CIWG
FQST
DWRS
NSSP
QCAC
YRHL
STTI
ACGN
WRHA
AYTM
HPDY
VISD
IGNS
HLNF
ASDG
GQPP
FWRC
VEVN
HAEC
SDKC
YVTF
WYGT
LSYE
YDES
RDEF
HTSI
WLGS
FYPY
WTAT
CMLS
TPDA
GCRR
FTWS
TCQC
NNLL
DLCA
HDML
GFGR
KYDC
SAVT
VMMF
WWSA
PKHQ
CPSI
VRVN
ANIR
LAFR
KERG
QAIR
IKHR
KTGL
RDLM
WDAC
SDAE
STLR
MTEW
LPLD
PEIR
VMVS
NQPI
ELSS
SKIS
PWQL
SLQL
IYRH
SCAK
YYES
IAPW
HNSV
SMEW
ELVM
FSAT
ANDR
IRDT
KESS
VPNA
EEVT
IDSG
KPGG
IRCY
READ
RVAQ
VTKY
EPMC
EFGL
ASGS
VAET
TPPP
RSMR
NVQG
MITG
KAMF
LIAV
LYMY
LNLH
RGQH
SVWG
AFVD
VWST
THKQ
PWPI
PQMT
EEHL
HAFE
SGLI
QHDD
SLIF
SFCC
HNIT
WKRK
GAFC
GQGC
IKNY
PKPL
